Experimental data: the supplement of paper PMC3334620
Over roughly 33,000 sequences, “E-score (-0.5 to 0.5)” has its median near -0.012; the highest 2% begin near 0.27. Some of the results follow.

What follows are sequences tested against T1, Vhr1 (UniProt P40522) (assay: PBM E-score (8-mer binding enrichment) (E-score (-0.5 to 0.5)); higher = stronger / more preferred TF binding; most listed sequences are background and not binding sites). Settings: protein concentration: 200 nM; construct: GST-full length.
T1 sequence: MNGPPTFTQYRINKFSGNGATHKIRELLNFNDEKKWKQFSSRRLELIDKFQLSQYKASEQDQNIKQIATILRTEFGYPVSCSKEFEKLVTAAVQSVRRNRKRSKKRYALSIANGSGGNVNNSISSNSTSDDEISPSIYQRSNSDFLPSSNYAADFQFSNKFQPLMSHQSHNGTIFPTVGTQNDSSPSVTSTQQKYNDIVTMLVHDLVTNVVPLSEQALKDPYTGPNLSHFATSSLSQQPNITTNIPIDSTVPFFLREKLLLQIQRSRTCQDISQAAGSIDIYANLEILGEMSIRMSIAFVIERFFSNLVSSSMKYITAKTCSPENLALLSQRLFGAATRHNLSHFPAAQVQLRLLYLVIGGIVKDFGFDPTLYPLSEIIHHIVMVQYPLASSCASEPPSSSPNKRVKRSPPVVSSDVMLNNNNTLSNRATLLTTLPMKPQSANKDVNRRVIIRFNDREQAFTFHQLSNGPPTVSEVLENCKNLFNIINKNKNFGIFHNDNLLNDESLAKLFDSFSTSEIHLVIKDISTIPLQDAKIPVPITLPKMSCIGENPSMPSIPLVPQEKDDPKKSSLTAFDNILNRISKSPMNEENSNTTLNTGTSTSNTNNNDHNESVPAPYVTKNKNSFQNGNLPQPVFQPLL
Method in brief: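 For each ungapped eight-base word taken together with its reverse complement, the Universal PBM Analysis Suite assigned an E-score. Binding data came from GST-tagged yeast transcription factors, applied at about 100-200 nM, on universal all-10-mer Agilent arrays made double-stranded by primer extension. Fluorescent anti-GST marked bound protein, and scans were normalised with masliner.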

Sequence | PBM E-score
AAACATAC | 0.0876
AGTCCTAC | 0.163
TCGCGGCA | -0.114
CCTACGGC | -0.13
CACGACTG | 0.178
ACCGTTGC | -0.0641
CGAGCTAC | -0.0186
TACGGTCA | -0.00125
AGGTTGCG | -0.0958
CGCACAAA | 0.119
ACGAACCT | -0.173
ATTCGGAA | -0.00853
CTAGTATA | 0.0509
AGGGTACT | 0.0423
ATCCAGCG | 0.0641
ACTCAGAG | 0.222
TAGACATA | 0.187
AGACTCAT | 0.353
AATGATGT | 0.095
GAAGCCTC | -0.0476
TGAGTCCA | 0.3
AGTTCCGG | -0.0219
AACTACAA | 0.212
GCCTTACC | -0.167
GGTGCGGA | 0.072

Sequence | PBM E-score
GCACCGTA | 0.0842
GGTTAGGA | 0.0588
AACCATAT | 0.218
CGGAGCGA | 0.0369
GGAGTAAA | 0.0262
ATCGCGCC | 0.174
AACAGCTT | -0.0895
CACCTGAC | 0.261
ATAAGCTG | 0.00054
ATTCGGGG | 0.0714
CGGCTCCC | -0.105
CGCGCTTC | 0.0933
CAAGTGGC | -0.134
GCCAAGAA | -0.126
TCTCAAAA | -0.143
ACTAGCCA | 0.157
AAGACTCC | 0.158
CAGCTTTA | -0.231
AGCGCCTA | -0.00947
CGGGTGTC | 0.0391
GGGTCGGA | 0.028
ACTGGTGG | 0.0234
GAACCTCA | -0.125
GTGGACAA | -0.106
CGAGTGTC | 0.121

Sequence | PBM E-score
AAGGGTCC | -0.192
CTATTACA | 0.0952
TAAGCCCA | 0.0458
AACGTCCC | -0.269
CGATCGCC | 0.0829
CCAGCTAC | 0.0616
GAAGTACA | 0.00849
AAAGGAGC | -0.17
CACGCTAC | -0.0797
ACTCGGTG | 0.189
ATGTAACC | 0.106
CAGACAAC | 0.0301
ACACGGAG | -0.0139
CTCTTTCC | -0.0776
CCTACTGA | 0.00752
GCCGGATA | -0.004
GGGTTTCA | 0.0315
GGTCCCGA | -0.0375
CGCGCTAC | -0.0337
ATAGCCTC | 0.0622
AAACTTGG | -0.0661
TGTCAACA | -0.192
AAAAGCTC | -0.264
CGTGTAAA | -0.144
CCTTGGTC | -0.287

Sequence | PBM E-score
CTATAGAG | -0.178
CGCCACGC | -0.148
AACCAGGA | -0.00068
TAGCAAAA | -0.216
GTGACCAC | 0.0504
CCTAGACC | -0.157
CTACCATA | 0.232
ACCAGTTG | 0.173
TCCCTGAA | -0.0584
CTAGTCTA | -0.0969
AACTCTAT | -0.0324
AAATTCGT | 0.0882
CCCGGTAA | -0.12
ACTACTAA | 0.0623
AATCTTTA | -0.0819
GATCCTTA | -0.128
AGAAGGCG | -0.17
CTGGATCC | 0.0152
GGGTGGGA | 0.239
AATACGGT | -0.119
GAACTCTC | -0.101
CCCGTGGA | 0.0571
GAGGAACA | 0.0217
CCCCCCAA | -0.258
CCGCCGTA | 0.0806

Sequence | PBM E-score
CTGTGACC | -0.056
GCGCCTAC | 0.0653
ACACGCAT | 0.102
CACCAAAC | 0.0452
ATTACTTG | 0.164
ATGCGCTG | -0.0838
AGTGCTAG | -0.104
AATCTGTC | -0.0564
GTGAACAA | -0.0196
ACGATACA | 0.0859
ACTACCCC | 0.0818
AAACAGGG | -0.0118
ACCCCGAA | 0.119
AAGTCCTA | -0.235
AAAGACGC | -0.154
ACGCTTGC | -0.0692
AACTAGCT | -0.0619
ATGCGTTC | 0.152
ATCGGAGA | 0.00168
GAACGGCC | -0.107
CTATACAC | -0.0983
CTACTTGC | 0.0953
AGAGGACG | 0.127
CCTGCCAA | -0.199
TATCTCCA | 0.112

Sequence | PBM E-score
AGCAAAAG | -0.248
CCTAGAAA | -0.339
AAGTGTAT | -0.187
CTCGATAC | 0.0671
CGCCGCAA | -0.089
CGATTGCC | -0.114
AGTGCACG | -0.0604
AGGTTTTA | -0.216
CAATATGC | 0.114
ATCGCGTC | 0.0208
ACTTGACT | 0.0723
CGCTCCTA | -0.0243
AACGCTGA | 0.00567
TGTAAAAA | -0.225
CAGGATGA | 0.266
CCTATCAA | -0.182
CAGCGGCG | 0.177
TACTTAAA | -0.393
CGCAGGAA | 0.0761
CTCCATCA | 0.2
GGTGGCAC | -0.0593
CTCCTGTC | -0.0765
ATAAGGAG | 0.0344
GCCGTTAC | 0.0559
CAACAAGG | 0.227

Sequence | PBM E-score
CTGTGCAC | -0.0754
AAAAATGA | -0.0948
AATGGGCA | -0.103
CGAAACCG | -0.01
CAACTATC | 0.125
GCCACAGA | -0.18
GCAACACC | 0.0734
ACGCGCCA | -0.0442
AGTCAAGC | 0.00212
CAAAGGAC | -0.204
ATTTTTAA | 0.0376
CGATGGTA | -0.00809
TCGCGAGA | 0.0565
AGCTACGG | -0.0657
CCACCCAA | 0.0748
AATAACGG | 0.0495
GACGATGC | -0.131
CGCGCATC | 0.00543
ATCTGGGA | -0.222
CAAGGGCG | -0.203
CTCCTTCC | -0.165
ACGCAGAT | -0.00634
